# Values joined by “and” are separate entries in the source; they are usually repeats but may differ in a detail not shown here. Equal entries are not always repeated. The campaign covered roughly 420,000 compounds. About 64,000 (15%) were called active. The shares of active, inactive and inconclusive entries below differ from those in the screen. Calls follow the shape of the dose curve; as a rule, active = well fitted inhibition curve with a large enough effect; inconclusive = small, poorly fitted or top-dose-only effect; inactive = flat fitted curve, though single readings scatter. A potency beside an inconclusive call is a rough fit, not a confirmed value. Where a structure was tested more than once in an assay, its records may differ in their call.
# Assay: qHTS for Inhibitors of human tyrosyl-DNA phosphodiesterase 1 (TDP1): qHTS in cells in absence of CPT; also: nearly all actives have a fitted effect of over 55% in size
# Conditions: DT40 Tdp1-/- hTDP1 cells, no CPT, ATP luminescence, 48 h; activity change, negative = growth inhibition: at 46.2 µM (top of the series) unless noted
# Procedure, shortened: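 Cells were dispensed at 400 per well, compounds added by pin tool, plates incubated ≥48 hr at 37 °C, then CellTiter-Glo added for 30 min at room temperature before luminescence reading. Line: DT40 Tdp1-/- complemented with hTDP1; camptothecin omitted.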
# % is scaled to controls: 0 for no effect and ±100 for the full control effect; potency is read from the fitted curve at half-maximal effect; tags tell the direction and shape of the fitted curve.
Compound,Potency,"activity change, negative = growth inhibition"
CCCCOc1ccc(CNC(=O)c2cnc3sc(N4CCCC4)nn3c2=O)cc1,"inconclusive: 1.84 µM [inhibitor, full curve]",
CCC(=O)N1c2ccccc2CC1C(=O)NCCCN1CCN(c2ccc(OC)cc2)CC1 (stereo not drawn),"inconclusive: 16.4 µM [inhibitor, partial curve]",
COc1cc(N/N=C(\C)c2ccc(N)cc2)nc(-c2ccccc2)n1,active: 18.4 µM,
COc1ccc(N2C(=O)/C(=C/c3ccc([N+](=O)[O-])cc3)N=C2C)c(OC)c1,active: 2.06 µM,
CCn1cc(C(=O)NCCC(C)C)c(=O)c2cc(S(=O)(=O)N(C)C3CCCCC3)ccc21,,inconclusive: -31.5% [inhibitor]
C=CCc1c(C)[nH]c2ccc(C)cc2c1=O,,inconclusive: -33.9% [inhibitor]
COc1ccccc1CCn1cc(C#N)c(=O)[nH]c1=O,inactive,
CN(C)CCN(Cc1cccs1)c1ccccn1,inactive and active: 23.7 µM,
S=C(NNC(=S)Nc1ccc(Cl)cc1)NNc1ccccc1,active: 16.4 µM,
Cc1ccc(C)c(NC(=O)c2cc(S(=O)(=O)NCc3ccccc3)ccc2F)c1,,inconclusive: -32.3% [inhibitor]
CCN(CC)S(=O)(=O)c1ccc2c(c1)nc(CN(C)C(=O)Nc1ccc(C)c(Cl)c1)n2C,,inconclusive: -30.8% [inhibitor]
CCCCCCc1cc2cc(C(=O)Nc3cccc(OC)c3)c(=O)oc2cc1O,active: 3.66 µM,
O=c1[nH]c(/C=C\c2cccc(F)c2)nc(O)c1[N+](=O)[O-],inactive,
CCCOc1ccc(-c2nc(-c3ccc([N+](=O)[O-])cc3)cs2)cc1,"inconclusive: 32.6 µM [inhibitor, partial curve, poor fit]",
Cc1ccc(S(=O)(=O)N2CCOC2C(Cl)(Cl)Cl)cc1 (stereo not drawn),inactive,
C[C@H](CO)N1C[C@H](C)[C@@H](CN(C)Cc2ccc(Cl)c(Cl)c2)Oc2ccc(NC(=O)Cn3cnnn3)cc2C1=O,inactive,
CC(=O)c1cccc(S(=O)(=O)N2CCC(C(=O)O)CC2)c1,inactive,
Cc1nc(Cl)c(Cl)n1CCOc1ccccc1,inactive,
O=C(CCCN1C(=O)/C(=C\c2ccco2)SC1=S)Nc1cccc2ccccc12,"inconclusive: 25.9 µM [inhibitor, single point]",
Cc1ccc(OCC(=O)NCC2(N3CCN(C)CC3)CCCCC2)cc1,"inconclusive: 29.1 µM [inhibitor, single point]",
COc1ccccc1NC(=O)COc1ccccc1C(=O)Nc1ccccc1,"inconclusive: 25.1 µM [inhibitor, single point] and inconclusive: 25.9 µM [inhibitor, single point]",
CCc1ccc(OCCCCN(C)Cc2ccccc2)cc1,active: 29.1 µM,
O=C(c1cccc([N+](=O)[O-])c1)N1CCN(c2ncccn2)CC1,inactive,
Nc1nnc(C(c2ccccc2)c2ccccc2)s1,"inconclusive: 23.1 µM [inhibitor, single point]",
Cc1cccc(NC(=O)CNC(=O)CCNC(=O)c2ccc(C(C)(C)C)cc2)c1C,"inconclusive: 25.9 µM [inhibitor, single point]",

Compound,Potency,"activity change, negative = growth inhibition"
O=c1c2sccc2nc(SCc2ccc([N+](=O)[O-])cc2)n1Cc1ccccn1,active: 16.4 µM,
COc1ccc(Br)cc1CNC(=O)CCc1nc(-c2ccccc2F)no1,"inconclusive: 23.1 µM [inhibitor, single point]",
COc1ccc(NC(=O)c2ccccc2F)cc1Cl,inactive,
CCc1ccc(NC(=O)C(=O)NCC(c2ccc3c(c2)OCO3)N2CCN(C)CC2)cc1 (stereo not drawn),active: 16.4 µM,
Cc1[nH][nH]c(=O)c1C=NCc1ccc(Cl)cc1,inactive,
CCOC(=O)C1CCCN(C(=O)c2ccc3c(c2)N(C)C(=O)/C(=C/c2ccccc2Cl)S3)C1 (stereo not drawn),active: 18.4 µM,
COc1ccc(Nc2ncc(C(=O)Nc3cccc(Cl)c3)c3ccccc23)cc1,"inconclusive: 29.1 µM [inhibitor, single point]",
CC(=O)c1c(C)[nH]c(C(=O)COc2cc(C)ccc2C(C)C)c1C,active: 4.61 µM,
CCOC(=O)C1(Cc2cccc(OC)c2)CCN(C/C=C/c2ccc(OC)cc2)CC1,active: 5.17 µM,
CCOC(=O)N1CCC(N2Cc3cccc(C(=O)Nc4ccccc4OC)c3C2=O)CC1,active: 16.4 µM,
COc1ccc(NC(=O)c2ccc(S(=O)(=O)N3CC(C)CC(C)C3)cc2)cc1S(N)(=O)=O (stereo not drawn),"inconclusive: 13 µM [inhibitor, partial curve]",
Cc1cc(N2C3CCC2CC(O)(c2ccc(F)cc2)C3)nc(-c2ccccc2)n1 (stereo not drawn),"inconclusive: 23.1 µM [inhibitor, single point]",
Cc1cc(C)c2c3c(sc2n1)C1(CCSCC1)C(C#N)=C(N)O3,"inconclusive: 23.1 µM [inhibitor, single point]",
Cc1ccc(O)c(NC(=O)c2cc(-c3ccc(F)cc3)no2)c1,inactive,
O=C(NCCS(=O)(=O)N1CCN(c2ccc(F)cc2)CC1)c1ccc2c(c1)OCO2,"inconclusive: 6.51 µM [inhibitor, partial curve, poor fit]",
Cc1ccc(-c2nn(C)c(=O)c3ccccc23)cc1CNS(C)(=O)=O,"inconclusive: 29.1 µM [inhibitor, single point]",
CC1=C(C#N)C(=O)NC(=O)/C1=C\c1ccc(-c2cc(C)c(C)cc2[N+](=O)[O-])o1,"inconclusive: 29.1 µM [inhibitor, single point]",
COc1ccc(Nc2ccccc2C(=O)O)cc1,inactive,
COc1ccc(-n2nc3c(N4CCC(C(=O)N5CCC(C)CC5)CC4)nnc(C)c3c2C)cc1,"inconclusive: 18.4 µM [inhibitor, single point] and inconclusive: 29.1 µM [inhibitor, single point]",
Cc1nc(-c2ccccc2)sc1C(=O)/C=C/c1ccc(Cl)cc1,active: 23.1 µM,
CCOC(=O)Nc1cccc2ccccc12,inactive,
C=CCn1cc(C(=O)OC)c(=O)c2cc(S(=O)(=O)N(CC)CC)ccc21,inactive,
CC(=O)Nc1cccc(C(=O)NNC(=O)c2n[nH]c(=O)c3ccccc23)c1,inactive,
Cc1ccc2[nH]c(-c3ccccc3)c(CN3CCOCC3)c(=O)c2c1,"inconclusive: 29.1 µM [inhibitor, single point]",
O=C(NCc1ccccc1CN1CCCC1)C1CCN(S(=O)(=O)c2ccc(F)c(F)c2)CC1,inactive,

Compound,Potency,"activity change, negative = growth inhibition"
CC(C)c1ccc(NC(=O)C2CCCN(S(=O)(=O)c3cnc[nH]3)C2)cc1 (stereo not drawn),"inconclusive: 18.4 µM [inhibitor, single point]",
CCCCSc1nc(O)c(Cc2ccccc2)c(=O)[nH]1,inactive,
CC(C)(C)c1cc(S(=O)(=O)CCc2ccncc2)cc(C(C)(C)C)c1F,"inconclusive: 14.6 µM [inhibitor, partial curve, poor fit]",
CCOC(=O)N[C@H](Cc1c[nH]c2ccccc12)C(=O)Nc1cccc(Cl)c1,"inconclusive: 18.4 µM [inhibitor, single point]",
COc1ccc(-c2c(C#Cc3ccsc3)c3cc(-c4ccc(CN5CCOCC5)cc4)ccc3n2C)cc1,"inconclusive: 9.2 µM [inhibitor, partial curve]",
Cc1ccc(/C=C/C(=O)NCCc2cccc(Cl)c2)o1,active: 18.4 µM,
Nc1c(C(=O)CSc2nnc(Nc3ccc(F)cc3)s2)c(=O)[nH]c(=O)n1C1CC1,"inconclusive: 9.2 µM [inhibitor, partial curve]",
O=C(Cc1ccccc1)N1CCCC1c1ccccc1 (stereo not drawn),"inconclusive: 23.1 µM [inhibitor, single point]",
Cc1ccc(S(=O)(=O)N(C)c2ccc(C(=O)NCc3cccnc3)cc2)cc1,"inconclusive: 14.6 µM [inhibitor, partial curve, poor fit]",
CCOC(=O)c1c(C)[nH]c(C(=O)COC(=O)c2ccc(O)cc2O)c1C,"inconclusive: 2.31 µM [inhibitor, full curve]",
CCCCOc1ccc(C(=O)N/C(=C/C=C/c2ccccc2)C(=O)NCCO)cc1,inactive,
CCOCCCN(Cc1ccco1)C(=O)c1cc2c(s1)-c1c(C)cccc1OC2,active: 23.1 µM,
CC(C)(C)OC(=O)NCC12C=CC(O1)C1C(=O)N(Cc3ccccc3)C(=O)C12 (stereo not drawn),"inconclusive: 29.1 µM [inhibitor, single point]",
Cc1cc(-c2csc(N)n2)c(C)n1-c1ccccc1,"inconclusive: 29.1 µM [inhibitor, single point]",
CCOc1ccc(Nc2nc3ccccc3n3cnnc23)cc1,active: 23.1 µM,
CC(C)Oc1ccc(CNC(=O)C2=Cc3ccccc3OC2)cc1,"inconclusive: 23.1 µM [inhibitor, single point]",
O=C(O)c1cccc(NC(=O)C23CC4CC(C2)CC(n2cnc(Cl)n2)(C4)C3)c1,inactive,
COc1ccc(-c2nnc3sc(-c4cccs4)nn23)cc1OC,active: 11.2 µM,
CCOC(=O)c1nn(-c2ccccc2)c(C#N)c1N,inactive,
O=C(Cc1ccccc1F)Nc1cc(S(=O)(=O)N2CCCCC2)ccc1N1CCOCC1,active: 16.4 µM,
CC(C)CN1C(=O)c2ccc(NC(=O)c3cccs3)cc2C1=O,active: 18.4 µM,
CCOc1ccccc1N1CSC2=C(C#N)C(c3c(OC)ccc4ccccc34)CC(=O)N2C1 (stereo not drawn),active: 20.6 µM,
Cc1ccsc1C(=O)N1CCCC(CCC(=O)NCc2ccc(F)c(F)c2)C1 (stereo not drawn),"inconclusive: 23.1 µM [inhibitor, single point]",

# — PubChem BioAssay AID686978 (National Center for Advancing Translational Sciences (NCATS), 2013)
